From the supplement of paper PMC4466236
Whole data set: some 33,000 sequences, median “E-score (dimensionless, -0.5 to 0.5)” near -0.058, cut for the highest 2% near 0.35. The list shows a part of the results.

What follows are sequences tested on MvaT (assay: PBM 8-mer E-score (mean of HK and ME arrays) (E-score (dimensionless, -0.5 to 0.5)); higher = stronger relative binding preference; most listed sequences are background and not binding sites).
How it was run: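 Full-length P. aeruginosa MvaT, with glutathione S-transferase fused to its N-terminus (cloned into pTH6838 by isothermal assembly), was tested by protein binding microarray using a previously described protocol. Two universal double-stranded 60-mer arrays (ME and HK) were used, each with a constant 25-mer primer region and a variable 35-mer region covering all 8-mers. The rank-based 8-mer E-score (-0.5 to 0.5) is the mean of the two arrays, parsed with a custom Python script.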

Row | Sequence | PBM 8-mer E-score
1 | GTCCATCA | -0.141
2 | GTAAGGCA | -0.0576
3 | AGGTCCCG | -0.203
4 | ACCCCCTC | -0.368
5 | CCATGGTC | -0.233
6 | GACAACTC | -0.0737
7 | ATGGCGAA | -0.00947
8 | ATGCAGAG | -0.177
9 | GGCTGAGA | -0.205
10 | AAAAACAA | 0.255
11 | CGTCCTCA | -0.231
12 | CAAGACTC | -0.137
13 | CCGGTCAA | -0.0838
14 | CGGCACCC | -0.287
15 | CATCGCGA | -0.0482
16 | CGACGTGA | -0.0792
17 | ATCTCAAG | 0.0032
18 | AGGCTTGA | -0.168
19 | GGAGGAAC | -0.236
20 | CGGTCAAA | -0.0553
21 | ATAAGGCG | 0.072
22 | AGCTCAAA | -0.0057
23 | ACTTGAAT | 0.174
24 | ACCAGCCG | -0.019
25 | CGTAGTCA | -0.0136

Row | Sequence | PBM 8-mer E-score
26 | TACAGAAA | 0.0518
27 | CGACCTCC | -0.209
28 | CAGGTGGC | -0.296
29 | ATAGTTGC | 0.231
30 | CCTCAGTA | -0.187
31 | AATCATTA | 0.311
32 | CCAGTTCA | -0.0519
33 | GAGGATAC | -0.068
34 | GATCGGGA | -0.107
35 | CTAAATAG | 0.102
36 | AGTCAATG | -0.0492
37 | CGTAGTAC | -0.0198
38 | AGGGGAAG | -0.153
39 | CCTGTGTC | -0.169
40 | CTGCATCA | -0.0868
41 | CCGCTCAA | -0.0312
42 | GCCTCCGA | -0.342
43 | ATCAGCGC | -0.132
44 | AGACACTG | -0.178
45 | ATATACAC | 0.336
46 | AACAACGG | 0.0601
47 | AAAGGGGT | -0.0534
48 | CCTACTTC | 0.0204
49 | AGGAGTGC | -0.205
50 | GAAACCTC | -0.246

Row | Sequence | PBM 8-mer E-score
51 | AGATGAGG | -0.214
52 | CCCTCAAC | -0.0409
53 | CGATATCG | 0.128
54 | CAGGTAAC | -0.0745
55 | CGTATCTA | 0.0267
56 | ACAGAAAC | 0.0564
57 | AATGCCCT | -0.161
58 | ATCTGACA | 0.0827
59 | AGCTCTCG | -0.164
60 | CCATGTAG | -0.0553
61 | CTAGAAAC | -0.0163
62 | GGTGCCGA | -0.235
63 | ACGGTCGG | -0.0606
64 | TGATCGCA | -0.0798
65 | AAGAAAGA | 0.0937
66 | CGGTAATA | 0.246
67 | CTCGGGTC | -0.203
68 | AGGAGGCC | -0.25
69 | GAATATAA | 0.38
70 | ATAGCTTC | -0.0344
71 | GATACTAC | 0.0306
72 | CCCAAAGC | -0.239
73 | TTACGAAA | 0.124
74 | AAGCCATT | 0.0159
75 | AACTATTG | 0.295

Row | Sequence | PBM 8-mer E-score
76 | AGTAACCC | -0.0792
77 | AGTAGGCA | -0.144
78 | ACGACTCG | -0.114
79 | TCACGACA | -0.105
80 | CCTCTCCG | -0.271
81 | AGTGACAA | -0.0902
82 | AACGGAAT | 0.149
83 | ACAGCCGA | -0.11
84 | AGCCTTTG | -0.166
85 | CGAGCACA | -0.0578
86 | GAATGTAA | 0.232
87 | CGCGCTAA | 0.126
88 | AAACATTC | 0.253
89 | GGCGGATA | -0.0643
90 | AGATTAGG | -0.0113
91 | GCCAACCA | -0.114
92 | CGTGCGTA | -0.0579
93 | AGCCGGAA | -0.24
94 | ATTCCAAC | 0.162
95 | GCCCGGCC | -0.376
96 | ACGTAGCA | -0.0174
97 | AAGGTTAA | 0.172
98 | CGACGACC | -0.229
99 | CGCCTTCC | -0.328
100 | AGGGGGCC | -0.286

Row | Sequence | PBM 8-mer E-score
101 | GCAGATCC | -0.0984
102 | CCACATTC | 0.134
103 | TGACCTAA | -0.0132
104 | AGGTGACT | -0.173
105 | CTTTCCGC | -0.0248
106 | CATTAGCA | -0.00352
107 | ATGGGCGG | -0.157
108 | AATAATTA | 0.463
109 | AAGTATGG | 0.205
110 | ATTAGTAC | 0.245
111 | ATCCTGTG | -0.0959
112 | GATAGACA | -0.141
113 | CCAGTCGG | -0.277
114 | CCCAATAG | -0.0152
115 | AGCGTTTC | -0.105
116 | GCGTCCGA | -0.208
117 | GGTAGGTA | -0.0424
118 | CTAAGATC | -0.206
119 | TCGTGCAA | 0.0759
120 | CGCATGAC | -0.169
121 | CCTCTCTC | -0.114
122 | AGTGTCTG | 0.0186
123 | ACTGATGC | -0.116
124 | CATAATCA | 0.227
125 | CCGGCTTC | -0.194

Row | Sequence | PBM 8-mer E-score
126 | GAGGGTGC | -0.16
127 | AAGTTGAT | 0.217
128 | AAGCTTCG | -0.091
129 | ACTTATTC | 0.229
130 | ACCCGGTC | -0.399
131 | ACTCAAAT | 0.221
132 | ACAACAAC | 0.216
133 | GACTTAAC | 0.128
134 | ACGCTGTG | -0.182
135 | ATATGATA | 0.252
136 | TCAGAGCA | -0.128
137 | GCACGGCA | -0.155
138 | AAATTCCA | 0.0973
139 | GGGAGGTA | -0.274
140 | ATAATATA | 0.475
141 | ATCACGTG | 0.0846
142 | CGCTCCAG | -0.173
143 | GAGTGCGC | -0.264
144 | AATTAATA | 0.449
145 | CAACTTAC | 0.321
146 | AGACACCC | -0.101
147 | AATCAAGC | 0.0398
148 | AGCCGCTA | -0.162
149 | CATCAGGA | -0.132
150 | AGGTGTCG | -0.122

Row | Sequence | PBM 8-mer E-score
151 | CTGGCCCA | -0.264
152 | AAATGTTG | 0.173
153 | TACATGGA | 0.0588
154 | AGAATGCT | -0.213
155 | GAAAAGTC | -0.098
156 | AAGAGAGG | -0.27
157 | ATTATTGA | 0.354
158 | GAGCCTAC | -0.245
159 | ATGAAACG | 0.121
160 | CCCCGTAA | -0.11
161 | CCAGCCAC | -0.0866
162 | ACTTTAGG | 0.085
163 | AAATCGAT | 0.246
164 | GTCGGGCA | -0.105
165 | ACCTAGAG | -0.136
166 | AGTAGTTC | 0.141
167 | CAAGCGCC | -0.172
168 | CACAGGAC | -0.18
169 | AGGGTTGC | -0.0957
170 | ACCGGAAC | -0.0433
171 | ACCCGTTG | -0.195
172 | AGACGTTG | -0.186
173 | CCTCTCAG | -0.269
174 | GACTCCGC | -0.328
175 | GGCGCTAA | -0.179

Row | Sequence | PBM 8-mer E-score
176 | CTTTGCAA | 0.104
177 | CATCCAAA | 0.0181
178 | CGTGCGAC | -0.193
179 | TAGGACCA | -0.0983
180 | CTCAATGA | -0.168
181 | CCCCGTAG | -0.261
182 | GGTTCTCA | -0.114
183 | CACTTCGG | -0.16
184 | AGTGGCAG | 0.0217
185 | ATTATATG | 0.416
186 | CCTCACGA | -0.194
187 | TGCGAAAA | 0.0053
188 | TAACATTA | 0.374
189 | AGCAAAGC | -0.133
190 | ACCTACCC | -0.0915
191 | ATCTCACA | 0.072
192 | CCAATATC | 0.194
193 | GTCCGGGA | -0.138
194 | ATAATTCC | 0.254
195 | TAGTTTGA | 0.236
196 | CTCGTACA | -0.139
197 | CACTCGCG | -0.19
198 | CGGGAATC | -0.107
199 | GCTGGGCC | -0.277
200 | TATTCACA | 0.285

Row | Sequence | PBM 8-mer E-score
201 | AGACGAGG | -0.231
202 | AGTAATTA | 0.421
203 | CCTCCTTA | -0.155
204 | ACCTATGG | -0.149
205 | CTATCCCA | -0.00164
206 | GAGAAACC | -0.0829
207 | AACCGGTG | -0.205
208 | ACGTGTGA | -0.0633
209 | ATAACGCC | 0.0177
210 | ACTGTTCG | 0.0616
211 | ATCGCGTA | 0.157
212 | TAAACGTA | 0.198
213 | AACTCTTC | -0.0929
214 | AGACGCCG | -0.312
215 | TAGGGATA | 0.00958
216 | GAAGCCGA | -0.205
217 | ACTTCAGA | 0.117
218 | TAGCGCCA | -0.0897
219 | CAACTGAG | -0.077
